Assay results reported in the supplement of paper PMC10326071.
± gives the standard deviation of the averaged measurements. The list shows a part of the results. Repeats are few or missing, and single values can be far off.

Tested on: SARS-CoV-2 nsp3 SARS-unique domain core (SUD-core, nsp3 residues 413-676)
Test: dissociation rate constant koff (BLI); higher = faster dissociation
Conditions: 100 µM; 25 °C

Compound	dissociation rate constant koff [s⁻¹]
O=c1[nH]cnc2[nH]ncc12	0.0153
COc1cc2c(cc1OC)-c1[nH]nc(Nc3cccc(F)c3)c1C2	0.226
O=c1[nH]c(=O)n([C@@H]2O[C@H](CO)[C@@H](O)[C@H]2O)cc1F	0.00924
CCNC(=O)C#Cc1ccc2c(C(=Nc3ccc(CN(C)C)cc3)c3ccccc3)c(O)[nH]c2c1	0.464
Nc1nccc(=O)[nH]1	0.0126
CN(C)Cc1ccc(-c2cnn3c(-c4cccc(NC(=O)c5cccc(C(F)(F)F)c5)c4)ccnc23)cc1	0.00467
CS(=O)(=O)CCNCc1ccc(-c2ccc3ncnc(Nc4ccc(OCc5cccc(F)c5)c(Cl)c4)c3c2)o1	0.00823
Nc1ncc(-c2ccc(C(=O)N3CCNCC3)cc2)nc1-c1ccc(C(F)(F)F)cc1	0.461
[N-]=[N+]=N[C@@H]1[C@H](O)[C@@H](n2ccc(=O)[nH]c2=O)O[C@H]1CO	0.0189
O=c1[nH]c(=O)n([C@H]2C[C@H](O)[C@@H](CO)O2)cc1Br	0.0129
NC(=O)c1ccccc1Nc1ccnc(Nc2cccc(O)c2)n1	1.17
Nc1nnc(Sc2ncc([N+](=O)[O-])s2)s1	0.755
O=C(/C=C/c1ccc(O)c(O)c1)c1ccc(O)cc1O	0.186
Oc1ccc(/C=C/c2cc(O)cc(O)c2)cc1	0.0046
COc1cc2nccc(Oc3ccc(NC(=O)c4cn(C(C)C)c(=O)n(-c5ccc(F)cc5)c4=O)cc3F)c2cc1OC	0.109
Cc1ccc2c(NS(=O)(=O)c3ccccc3Cl)cccc2c1Oc1ncccc1-c1ccnc(N[C@H]2CCCNC2)n1	0.123
CCCC(=O)Nc1nc2c(ncn2[C@@H]2O[C@@H]3COP(=O)(O)O[C@H]3[C@H]2OC(=O)CCC)c(=O)[nH]1	0.0162
O=C(c1ccc(-c2ccc(Cl)cc2)o1)N(Cc1ccccn1)c1ccc(N2CCNCC2)cc1	0.204
CNC(=O)c1ccccc1Oc1nc(Nc2cc(OC)c(OC)c(OC)c2)ncc1Br	1.53
Cc1ccc(Oc2nc3cc(-c4ccc(-c5ccccc5)cc4)c(Cl)cc3[nH]2)cc1C(=O)O	0.0531

Compound	dissociation rate constant koff [s⁻¹]
Nc1ccc(O)c(C(=O)O)c1	0.00111
Nc1ccn([C@@H]2O[C@H](CO)[C@@H](O)[C@H]2O)c(=O)n1	0.0396
Cn1c(=O)ccn([C@@H]2O[C@H](CO)[C@@H](O)[C@H]2O)c1=O	1.93
CN[C@@H]1C[C@H]2O[C@@](C)([C@@H]1OC)n1c3ccccc3c3c4c(c5c6ccccc6n2c5c31)C(=O)NC4	0.179
COc1ccc2c(c[n+](C)c3c4cc5c(cc4ccc23)OCO5)c1OC	0.0721
O=C(c1ccc(Oc2ccccc2)cc1Cl)c1c[nH]c2ncnc(N[C@@H]3CC[C@@H](CO)OC3)c12	0.0977
Cc1c(C(=O)Nc2ccc(Oc3ccnc4cc(OCC(C)(C)O)ccc34)c(F)c2)c(=O)n(-c2ccccc2)n1C	0.159
O=c1[nH]cnc2c1ncn2[C@H]1C[C@H](O)[C@@H](CO)O1	0.0426
C[C@@H]1O[C@@H](O[C@H]2[C@H](O[C@H]3CC[C@]4(C)[C@H]5CC=C6[C@@H]7CC(C)(C)CC[C@]7(C(=O)O)CC[C@@]6(C)[C@]5(C)CC[C@H]4C3(C)C)OC[C@H](O[C@@H]3O[C@H](CO)[C@@H](O)[C@H](O)[C@H]3O)[C@@H]2O)[C@H](O)[C@H](O)[C@H]1O	0.413
COc1ccc2cc1Oc1ccc(cc1)C[C@H]1c3cc(c(OC)cc3CCN1C)Oc1c(O)c(OC)cc3c1[C@H](C2)N(C)CC3	0.0743
O[C@@H]1CO[C@H]2[C@@H]1OC[C@H]2Oc1nc2nc(-c3ccc(-c4ccccc4)cc3)c(Cl)cc2[nH]1	0.133
CC(=O)Nc1ccn([C@@H]2O[C@H](CO)[C@@H](O)[C@H]2O)c(=O)n1	0.0322
Cc1c[nH]c(/C=C2\C(=O)Nc3ccccc32)c1CCC(=O)O	0.0706
Cc1cc2c(F)c(Oc3ncnn4cc(OC[C@@H](C)OC(=O)[C@H](C)N)c(C)c34)ccc2[nH]1	0.0661
CCCCCCCCCCCCCCCCCCCCCC(=O)Nc1ccn([C@@H]2O[C@H](CO)[C@@H](O)[C@@H]2O)c(=O)n1	0.449
CN(C)c1ncnc2c1ncn2[C@@H]1O[C@H](CO)[C@@H](N)[C@H]1O	0.0133
C=CS(=O)(=O)c1ccc(Nc2nc(OCC3CCCCC3)c3[nH]cnc3n2)cc1	1.66
C[C@H]1O[C@@H](n2cnc3c(N)ncnc32)[C@H](O)[C@@H]1O	0.298 ± 0.34
CCCCCCCCCCCCCCCCOP(=O)([O-])OCC[N+](C)(C)C	0.0351
